# Measurements as given in the supplement of paper PMC11369174, “Proteome-scale characterisation of motif-based interactome rewiring by disease mutations” (Molecular Systems Biology, 2024).
# The other results are listed elsewhere or left out. Single values of this set are uncertain.
# T1: AP2_Mu__Q96CW1_160_435
# T1 chain: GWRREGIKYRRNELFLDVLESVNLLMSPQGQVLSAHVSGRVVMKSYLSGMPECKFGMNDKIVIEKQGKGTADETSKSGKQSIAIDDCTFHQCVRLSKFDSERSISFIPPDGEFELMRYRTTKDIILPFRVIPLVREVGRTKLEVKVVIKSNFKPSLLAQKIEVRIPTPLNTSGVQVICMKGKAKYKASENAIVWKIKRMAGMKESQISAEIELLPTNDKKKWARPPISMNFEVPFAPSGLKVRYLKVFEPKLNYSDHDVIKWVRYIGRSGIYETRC
# T2: AURKA_Pkinase-merged__O14965_125_391
# T2 chain: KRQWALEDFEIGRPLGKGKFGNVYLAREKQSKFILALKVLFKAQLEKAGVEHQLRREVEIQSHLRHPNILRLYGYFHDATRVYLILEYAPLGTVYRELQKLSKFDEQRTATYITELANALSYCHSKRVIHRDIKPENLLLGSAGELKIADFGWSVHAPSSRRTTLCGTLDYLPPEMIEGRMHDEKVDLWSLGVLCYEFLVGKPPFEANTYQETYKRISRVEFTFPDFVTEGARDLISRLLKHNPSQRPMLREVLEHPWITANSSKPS
# T3: CSK21_Pkinase__P68400_1_335
# T3 chain: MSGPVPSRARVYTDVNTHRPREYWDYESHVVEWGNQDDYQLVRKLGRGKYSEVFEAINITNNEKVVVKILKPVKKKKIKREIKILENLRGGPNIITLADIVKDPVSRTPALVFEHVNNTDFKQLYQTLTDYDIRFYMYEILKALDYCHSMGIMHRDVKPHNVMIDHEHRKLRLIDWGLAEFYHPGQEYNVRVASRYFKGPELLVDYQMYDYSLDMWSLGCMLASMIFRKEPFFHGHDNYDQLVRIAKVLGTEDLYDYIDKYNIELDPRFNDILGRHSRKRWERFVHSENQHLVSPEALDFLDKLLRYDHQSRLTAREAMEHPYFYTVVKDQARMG
# T4: EPS15_EH__P42566_121_215
# T4 chain: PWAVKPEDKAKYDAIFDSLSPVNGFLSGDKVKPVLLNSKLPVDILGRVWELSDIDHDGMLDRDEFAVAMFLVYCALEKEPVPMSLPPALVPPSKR
# T5: DOK1_PTB__Q99704_151_256
# T5 chain: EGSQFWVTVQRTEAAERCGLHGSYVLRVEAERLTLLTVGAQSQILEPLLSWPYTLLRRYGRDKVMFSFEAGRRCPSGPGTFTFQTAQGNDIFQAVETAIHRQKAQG
# T6: GGA1_VHS__Q9UJY5_1_157
# T6 chain: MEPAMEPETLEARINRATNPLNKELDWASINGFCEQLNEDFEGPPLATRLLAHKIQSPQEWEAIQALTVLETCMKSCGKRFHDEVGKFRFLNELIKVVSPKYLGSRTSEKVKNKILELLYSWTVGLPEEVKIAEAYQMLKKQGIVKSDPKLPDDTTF
# T7: GGA3_VHS__Q9NZ52_1_166
# T7 chain: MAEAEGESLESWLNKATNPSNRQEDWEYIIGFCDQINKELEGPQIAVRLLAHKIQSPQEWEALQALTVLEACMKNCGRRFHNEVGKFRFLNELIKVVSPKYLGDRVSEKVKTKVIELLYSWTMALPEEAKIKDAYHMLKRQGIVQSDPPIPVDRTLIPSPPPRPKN
# T8: PDZK1_PDZ_2_Q5T2W1_132_224
# T8 chain: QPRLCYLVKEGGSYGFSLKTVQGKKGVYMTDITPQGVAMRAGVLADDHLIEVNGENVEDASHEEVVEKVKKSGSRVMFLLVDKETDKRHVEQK
# T9: SHC_PH__P29353_149_317
# T9 chain: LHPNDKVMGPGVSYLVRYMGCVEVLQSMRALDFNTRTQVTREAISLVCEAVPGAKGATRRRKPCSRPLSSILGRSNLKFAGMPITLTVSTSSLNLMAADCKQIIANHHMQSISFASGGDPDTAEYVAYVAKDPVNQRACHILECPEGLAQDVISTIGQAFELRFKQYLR
# B1: G53D G53D (peptide)
# chain: FGLPRLPEEWSQWLGGSSWPDYVRPLPPAAIESPAVAAPAY
# B2: P1869L P1869L (peptide)
# chain: ALSQAVTDVYARFGEEHSANLFHWDLIGKNLFAMVVEGVVY
# B3: Y1858N Y1858N (peptide)
# chain: HFCLGRGLIDLALSQAVTDVNARFGEEHSANPFHWDLIGKN
# B4: L388P L388P (peptide)
# chain: KILLDVKTRLEQEIATYRRLPEGEDAHLTQYKKEPVTTRQV
# B5: R208G R208G (peptide)
# chain: RKKNIAAERKEAKQEKEEADGYQRLKDEVVRAQVQLQLFKL
# B6: G992E G992E (peptide)
# chain: GSLPHSDDAGDYEQLFSSTQEEISEPSQITSEPEEQSGAVR
# B7: W787C W787C (peptide)
# chain: VIVVWNTYVKINDLEHSVHHCTINKEIKETEFKGIPISYLE
# B8: S10425L S10425L (peptide)
# chain: VPQRVEVTRHEVSAEEEWSYLEEEEGVSISVYREEEREEEE
# B9: N762S N762S (peptide)
# chain: LQEKDIQMWKVSLQKEQARYSQLQEQRDTMVTKLHSQIRQL
# B10: Q758K Q758K (peptide)
# chain: DQLKLQEKDIQMWKVSLQKEKARYNQLQEQRDTMVTKLHSQ
# B11: N456D N456D (peptide)
# chain: WSFLFSLILIVIMFLWRPSADNQRYAFMPLIDDSDDEIEEF
# B12: R655L R655L (peptide)
# chain: GRARWGLAYTLLHNPTLQVFLKTALLGANGAQP
# B13: E897K E897K (peptide)
# chain: DEVNEGELKEIKQDISSLRYKLLEEKSQNTEDLAELIRELG
# B14: N1868I N1868I (peptide)
# chain: LALSQAVTDVYARFGEEHSAIPFHWDLIGKNLFAMVVEGVV
# B15: R29L R29L (peptide)
# chain: IQFSVPAPPSQLDPRQVEMILRRRPTPAMLFRLSEHSSPEE
# B16: S276F S276F (peptide)
# chain: AVSSIQKAKGYQLLEEEKIVFHYFPLTEVGMVETSPLPAKP
# B17: P78S P78S (peptide)
# chain: PSCGLPYYWNADTDLVSWLSSHDPNSVVTKSAKKLRSSNAD
# Target: T1, AP2_Mu__Q96CW1_160_435
# Test: mutation enrichment score (mutant vs wild-type peptide binding to bait); baits are purified protein domains named by gene / domain / UniProt id / residues; peptides come from disordered regions of human proteins; higher = mutation enhances binding relative to wild type
# Conditions: number of wild-type / mutant comparisons summed (bounds the score): 6; paper call: no_effect; wild-type window: …
row,Binder,mutation enrichment score
1,B1,1.4
2,B2,3.5
3,B3,-5
4,B4,1
5,B5,5.6
6,B6,-4
7,B7,5
8,B8,4
9,B9,2
10,B10,2.9
11,B11,-1.3
12,B12,0

# Target: T2, AURKA_Pkinase-merged__O14965_125_391
# Test: as above
# Conditions: number of wild-type / mutant comparisons summed (bounds the score): 6; paper call: no_effect; wild-type window: …
row,Binder,mutation enrichment score
1,B1,5.5
2,B17,2.9

# Target: T3, CSK21_Pkinase__P68400_1_335
# Test: as above
# Conditions: number of wild-type / mutant comparisons summed (bounds the score): 6; paper call: no_effect; wild-type window: …
row,Binder,mutation enrichment score
1,B1,2
2,B16,2

# Target: T4, EPS15_EH__P42566_121_215
# Test: as above
# Conditions: number of wild-type / mutant comparisons summed (bounds the score): 6; paper call: no_effect; wild-type window: …
row,Binder,mutation enrichment score
1,B2,-4
2,B14,-4

# Same assay, conditions: number of wild-type / mutant comparisons summed (bounds the score): 12; paper call: no_effect; wild-type window: …
row,Binder,mutation enrichment score
1,B3,0.2

# Target: MAP1LC3B_ATG8__Q9GZQ8_2_119
# Test: as above
# Conditions: number of wild-type / mutant comparisons summed (bounds the score): 12; paper call: no_effect; wild-type window: …
row,Binder,mutation enrichment score
1,B6,-0.76

# Target: SNX27_PDZ__Q96L92_40_141
# Test: as above
# Conditions: number of wild-type / mutant comparisons summed (bounds the score): 6; paper call: no_effect; wild-type window: …
row,Binder,mutation enrichment score
1,B7,-1.8

# Target: T5, DOK1_PTB__Q99704_151_256
# Test: as above
# Conditions: number of wild-type / mutant comparisons summed (bounds the score): 5; paper call: no_effect; wild-type window: …
row,Binder,mutation enrichment score
1,B8,4

# Target: GABARAPL1_ATG8__Q9H0R8_2_115
# Test: as above
# Conditions: number of wild-type / mutant comparisons summed (bounds the score): 24; paper call: enhanced; wild-type window: …
row,Binder,mutation enrichment score
1,B8,15

# Target: MAP1LC3A_ATG8__Q9H492_2_121
# Test: as above
# Conditions: number of wild-type / mutant comparisons summed (bounds the score): 24; paper call: enhanced; wild-type window: …
row,Binder,mutation enrichment score
1,B8,9

# Target: MAP1LC3B_ATG8__Q9GZQ8_2_119
# Test: as above
# Conditions: number of wild-type / mutant comparisons summed (bounds the score): 18; paper call: enhanced; wild-type window: …
row,Binder,mutation enrichment score
1,B8,11

# Target: T1, AP2_Mu__Q96CW1_160_435
# Test: as above
# Conditions: number of wild-type / mutant comparisons summed (bounds the score): 12; paper call: diminished; wild-type window: …
row,Binder,mutation enrichment score
1,B13,-6.6

# Same assay, conditions: number of wild-type / mutant comparisons summed (bounds the score): 12; paper call: enhanced; wild-type window: …
row,Binder,mutation enrichment score
1,B14,9

# Same assay, conditions: number of wild-type / mutant comparisons summed (bounds the score): 12; paper call: no_effect; wild-type window: …
row,Binder,mutation enrichment score
1,B15,-2
2,B16,-0.17

# Target: T3, CSK21_Pkinase__P68400_1_335
# Test: as above
# Conditions: number of wild-type / mutant comparisons summed (bounds the score): 12; paper call: no_effect; wild-type window: …
row,Binder,mutation enrichment score
1,B17,-0.21

# Target: T6, GGA1_VHS__Q9UJY5_1_157
# Test: as above
# Conditions: number of wild-type / mutant comparisons summed (bounds the score): 5; paper call: no_effect; wild-type window: …
row,Binder,mutation enrichment score
1,B17,-2

# Target: T7, GGA3_VHS__Q9NZ52_1_166
# Test: as above
# Conditions: number of wild-type / mutant comparisons summed (bounds the score): 6; paper call: no_effect; wild-type window: …
row,Binder,mutation enrichment score
1,B17,-2.1

# Target: T8, PDZK1_PDZ_2_Q5T2W1_132_224
# Test: as above
# Conditions: number of wild-type / mutant comparisons summed (bounds the score): 6; paper call: no_effect; wild-type window: …
row,Binder,mutation enrichment score
1,B17,-0.083

# Target: T9, SHC_PH__P29353_149_317
# Test: as above
# Conditions: number of wild-type / mutant comparisons summed (bounds the score): 6; paper call: no_effect; wild-type window: …
row,Binder,mutation enrichment score
1,B17,3.6
